Screen size: about 310,000 compounds; about 2,200 (0.71%) showed an effect of 50% or more. The effect is printed as a negative number. Some of the results follow.

Experimental findings from paper PMC4336329 (PLoS ONE, 2015) are described below.

For this assay, the target named is human ether-à-go-go-related gene (hERG) potassium channel (human, UniProt Q12809). Briefly: primary screen, population patch clamp on CHO cells stably expressing hERG.
Chain of human ether-à-go-go-related gene (hERG) potassium channel (Q12809 whole entry, looked up): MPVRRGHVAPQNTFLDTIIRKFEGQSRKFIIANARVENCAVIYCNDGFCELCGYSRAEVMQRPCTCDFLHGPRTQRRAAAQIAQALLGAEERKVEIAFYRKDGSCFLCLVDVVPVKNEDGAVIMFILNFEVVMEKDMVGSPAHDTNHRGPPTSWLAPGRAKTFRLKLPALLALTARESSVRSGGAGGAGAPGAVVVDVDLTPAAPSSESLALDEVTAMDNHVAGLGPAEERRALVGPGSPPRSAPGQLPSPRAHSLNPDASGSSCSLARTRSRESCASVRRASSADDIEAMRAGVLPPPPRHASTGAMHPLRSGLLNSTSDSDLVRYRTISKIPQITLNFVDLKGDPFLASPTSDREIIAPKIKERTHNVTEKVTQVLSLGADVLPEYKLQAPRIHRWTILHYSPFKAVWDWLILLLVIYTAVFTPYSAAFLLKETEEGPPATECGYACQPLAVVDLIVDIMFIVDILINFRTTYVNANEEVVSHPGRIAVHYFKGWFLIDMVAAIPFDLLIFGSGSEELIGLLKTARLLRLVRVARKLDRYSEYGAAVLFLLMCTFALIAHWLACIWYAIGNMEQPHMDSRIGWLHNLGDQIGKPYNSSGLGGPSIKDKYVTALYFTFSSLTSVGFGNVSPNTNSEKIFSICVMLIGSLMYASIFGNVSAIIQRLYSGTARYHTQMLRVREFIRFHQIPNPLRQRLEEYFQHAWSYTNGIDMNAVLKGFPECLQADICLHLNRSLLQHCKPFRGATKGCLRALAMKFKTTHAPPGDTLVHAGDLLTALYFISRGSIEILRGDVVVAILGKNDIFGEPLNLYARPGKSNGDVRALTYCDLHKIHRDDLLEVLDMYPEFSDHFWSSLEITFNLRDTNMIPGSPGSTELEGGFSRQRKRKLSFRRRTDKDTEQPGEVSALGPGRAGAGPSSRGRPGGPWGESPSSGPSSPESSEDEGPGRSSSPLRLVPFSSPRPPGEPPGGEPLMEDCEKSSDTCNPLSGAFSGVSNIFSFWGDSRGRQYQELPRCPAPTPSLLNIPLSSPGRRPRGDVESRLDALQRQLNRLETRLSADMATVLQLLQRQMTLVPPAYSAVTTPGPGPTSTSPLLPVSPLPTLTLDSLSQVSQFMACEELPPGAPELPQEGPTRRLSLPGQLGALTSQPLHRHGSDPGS
On to `O=C(COc1ccc(Cl)cc1Cl)N1CCN(c2ccccn2)CC1`, for which the “hERG current change (%, negative = inhibition) at 1uM” value is recorded as -0.352%.
As to `O=C(CN(Cc1cccs1)C(=O)CSc1nnc(COc2ccccc2)o1)NC1CCCCC1`, the “hERG current change (%, negative = inhibition) at 1uM” value was found to be 0.109%.
With `Cc1cc(S(=O)(=O)NCCCN2CCOCC2)ccc1Br.Cl` the figure was 2.38%; with `Cc1ccc(Cl)cc1N1CCN(C(=O)c2ccccc2SCC(=O)N2CCCC2)CC1`, 0.57%.
Take `CN1C(=O)[C@H]2[C@@H](/C=C/c3ccccc3)N3C(=O)CN(Cc4ccccc4)C(=O)[C@@]3(C)[C@H]2C1=O`: the “hERG current change (%, negative = inhibition) at 1uM” value is -2.77%.
With `O=C(N/N=C/c1cccc(C(F)(F)F)c1)c1cc2c(s1)-c1ccccc1CC2` the figure was 2.97%.
For `O=C(Nc1ccc(S(=O)(=O)N2CCCC2)cc1)c1ccccc1` the value was -6.63%; for `CC(C)CCNC(=O)C(c1ccco1)N(CC1CCCO1)C(=O)Cn1nnc2ccccc21` (stereo not shown), 15%.
Consider `Clc1ccc(N2CCN(Cc3ccc(Br)o3)CC2)cc1`, for which the “hERG current change (%, negative = inhibition) at 1uM” value is given as 11.4%.
Consider `N#CC1(c2ccccc2)CCCN1C(=O)c1ccc(Br)o1` (stereo not shown), for which the “hERG current change (%, negative = inhibition) at 1uM” value is listed as 10.4%.
With `CC(NC(=O)Cn1nc(-c2ccccc2)c2ccccc2c1=O)c1ccccc1` (stereo not shown) the figure was 15%; with `O=C(O)CCC(=O)NNc1nc(-c2ccccc2)c2cc(Cl)ccc2n1`, 9.94%.
On to `COc1ccc(-c2ccc(SCC(=O)Nc3cccc(C(C)=O)c3)nn2)cc1OC`, for which the “hERG current change (%, negative = inhibition) at 1uM” value is 6.82%.
With `CCOc1ccc2nc(/N=C/c3nc(-c4ccccc4)oc3O)sc2c1` the figure was 11.5%.
With `O=C1CCc2cc(S(=O)(=O)Nc3ccccc3)ccc2N1` the figure was 3%; with `CCOc1ccc(-c2c(=O)n(O)c3ccccc3[n+]2[O-])cc1`, 21.7%.
For `c1ccc(CSc2nnc3c(n2)OC(c2ccco2)Nc2ccccc2-3)cc1` (stereo not shown) the value was 14.9%.
As for `Cc1ccc(NC(=O)CSc2nc(C)c(Cc3ccccc3)c(=O)[nH]2)cc1`, the “hERG current change (%, negative = inhibition) at 1uM” value was determined as 13.7%.
With `COc1ccc(-c2noc(CCCC(=O)N3CCOCC3)n2)cc1` the figure was 17.6%; with `C=CCNC(=S)Nc1sc2c(c1C(=O)OCC)CC(C(C)C)OC2` (stereo not shown), -2.94%.
With `COc1ccc(N2CCN(c3ncnc4scc(-c5ccc(C)cc5)c34)CC2)cc1`, the “hERG current change (%, negative = inhibition) at 1uM” value stood at 13.2%.
`CCc1ccccc1NC(=O)NNS(=O)(=O)c1cc(C)ccc1C`: the “hERG current change (%, negative = inhibition) at 1uM” value is on record as 10.3%.
For `O=S(=O)(Nc1ccc2c(c1)oc1ccccc12)N1CCCC1` the value was 14.2%; for `O=C1[C@@H]2Cc3c([nH]c4ccccc34)C(c3cccc([N+](=O)[O-])c3)N2C(=O)CN1C1CCN(Cc2ccccc2)CC1` (stereo partly shown), 5.28%.
On to `Cc1ccccc1C(=O)Nc1sc2c(c1C(=O)O)CCC2`, for which the “hERG current change (%, negative = inhibition) at 1uM” value is listed as 13.9%.
Take `CC(C)C(=O)NNc1ccccc1`: the “hERG current change (%, negative = inhibition) at 1uM” value amounted to 7.01%.
For `CC1CCN(Cc2c(C(=O)N/N=C/c3cc(Br)ccc3O)nnn2-c2nonc2N)CC1` the value was 14.4%; for `CC(OC(=O)c1ccco1)C(=O)Nc1ccc(C(F)(F)F)cc1` (stereo not shown), 5.12%.
Turning to `N#Cc1cccc(NC(=O)Cc2ccsc2)c1`, the “hERG current change (%, negative = inhibition) at 1uM” value worked out at 16.5%.
For `CN(C)c1cccc2c(C=C(C#N)C#N)ccc(N(C)C)c12` the value was -6.83%.
Take `COc1ccc(NC(=O)Cn2c(=O)n(CC3CCCO3)c(=O)c3ccccc32)c(OC)c1` (stereo not shown): the “hERG current change (%, negative = inhibition) at 1uM” value was found to be 10.3%.
As for `O=C(Cn1nc(Cc2cccnc2)c2ccccc2c1=O)NCc1ccc(F)cc1`, the “hERG current change (%, negative = inhibition) at 1uM” value is -13.2%.
With `Oc1ccc(N2CCN(C(c3ccncc3)c3nnnn3C3CCCC3)CC2)cc1` (stereo not shown), the “hERG current change (%, negative = inhibition) at 1uM” value was found to be 1.94%.
Turning to `Cc1ccc2sc(NC(=O)CN3C(=O)c4ccccc4C3=O)nc2c1C`, the “hERG current change (%, negative = inhibition) at 1uM” value stood at 8.06%.
With `Nc1ccc(C#Cc2ccccc2)cc1` the figure was -3.21%; with `Cc1sc2ncn(CC(=O)N3CCC(C(N)=O)CC3)c(=O)c2c1S(=O)(=O)N1CC(C)CC(C)C1` (stereo not shown), 19.2%.
With `Cc1ccc(NC2CCCN(C(=O)CN3C(=O)c4ccccc4C3=O)C2)cc1C` (stereo not shown) the figure was 16%.
With `O=C(c1ccccc1)c1ccccc1` the figure was 13.6%; with `Cc1cc(OCC(=O)OCC(=O)NC2CCCCC2C)ccc1Cl` (stereo not shown), 5.07%.
Regarding `COc1ccccc1C(=O)N1CCN(Cc2nc(CC3CC3)no2)CC1`, the “hERG current change (%, negative = inhibition) at 1uM” value was found to be 13.8%.
With `O=C1CCCC2=C1C(c1cccs1)CC(=O)N2c1ccc(F)cc1` (stereo not shown), the “hERG current change (%, negative = inhibition) at 1uM” value is listed as -1%.
For `COC(=O)c1ccc(CNC(=O)CSC2=NCCS2)cc1` the value was 10.3%; for `N#CC1=C(N)Oc2cc(Nc3ccccc3)ccc2C1c1ccncc1` (stereo not shown), 5.45%; for `COc1ccc(S(=O)(=O)N2CCCC2c2cccs2)cc1` (stereo not shown), 17.6%.
In the case of `COc1ccccc1C(CNC(=O)CNC(=O)c1ccc(Cl)c(Cl)c1)N1CCCC1` (stereo not shown), the “hERG current change (%, negative = inhibition) at 1uM” value is recorded as 8.3%.
Take `COc1cc(OC)cc(C(=O)NCCCNC(=O)c2cccnc2)c1`: the “hERG current change (%, negative = inhibition) at 1uM” value worked out at 13.6%.
With `COc1ccc(S(=O)(=O)Nc2ccc(F)cc2F)cc1C(=O)N1CCOCC1` the figure was 9.98%; with `CCOC(=O)c1sc(NC(=O)CSc2nc(C)cc(C)c2C#N)c(C#N)c1C`, 7.95%; with `O=C(COC(=O)c1ccc([N+](=O)[O-])s1)Nc1ccc(Cl)cn1`, 6.28%.
Regarding `Cc1ccc2nc(-c3ccccc3)cc(C(=O)NCCCn3ccnc3)c2c1`, the “hERG current change (%, negative = inhibition) at 1uM” value is given as -0.904%.
For `COc1ccccc1-n1c(SCC(=O)O)nc2sc3c(c2c1=O)CCC3`, the “hERG current change (%, negative = inhibition) at 1uM” value worked out at 14.5%.
For `COc1cc(/C=N/OCC(=O)Nc2cc(C)on2)ccc1OCc1ccccc1` the value was 32.3%; for `Cc1ccc(Oc2nc(-c3ccccc3)ncc2S(C)(=O)=O)cc1`, 19.7%.
With `CC1CCN(c2ccc([N+](=O)[O-])cc2C(N)=O)CC1` the figure was 6.34%; with `COc1ccc(S(=O)(=O)Nc2ccccn2)cc1C(=O)Nc1ccccc1`, -4.15%.
As to `C=CCc1c(C)nc(SC)nc1Nc1ccc(C(C)=O)cc1`, the “hERG current change (%, negative = inhibition) at 1uM” value is 4.27%.
On to `CCN1CCN(C(=O)CN(CC)S(=O)(=O)c2ccc(F)cc2)CC1`, for which the “hERG current change (%, negative = inhibition) at 1uM” value worked out at 15.2%.
For `CC(=O)N(Cc1cc(=O)[nH]c2ccccc12)c1ccc(C)cc1`, the “hERG current change (%, negative = inhibition) at 1uM” value was -2.33%.
With `CCn1nnnc1SCC(=O)N1c2ccccc2CCc2ccccc21`, the “hERG current change (%, negative = inhibition) at 1uM” value stood at 7.72%.
As to `CCOc1cc(C(=O)Nc2ccc([N+](=O)[O-])cn2)cc(OCC)c1OCC`, the “hERG current change (%, negative = inhibition) at 1uM” value worked out at 0.649%.
With `O=S(=O)(CCN1CCSCC1)c1ccc(Cl)cc1` the figure was 12.1%; with `O=C(CNC(=O)c1ccncc1)N/N=C/c1cc(Br)ccc1OCc1ccccc1`, 8.38%; with `CCS(=O)(=O)c1ccc2c(c1)N(S(C)(=O)=O)CC(C(=O)NN)O2` (stereo not shown), 24%.
For `COc1cccc(C(=O)NC(=S)N2c3ccccc3CC2C)c1OC` (stereo not shown) the value was 13.3%; for `COc1ccc(C=Nc2cccc3ncccc23)cc1`, 11.2%.
For `O=C(COC(=O)c1ccccc1Nc1cccc(C(F)(F)F)c1)NCc1ccco1` the value was 7.43%; for `CCOC(=O)c1c(N)sc2c1C1CCN2CC1.Cl`, 2.69%; for `COc1ccc(C(=O)N2CCCC(CCC(=O)NCc3ccc(F)c(F)c3)C2)o1` (stereo not shown), 9.6%.
Take `O=C1/C(=C\c2cccc(O)c2)SC(=S)N1Cc1ccccc1`: the “hERG current change (%, negative = inhibition) at 1uM” value worked out at 12.1%.
Take `CC1(C)Cc2ccccc2-c2nnc(-c3ccccn3)n21`: the “hERG current change (%, negative = inhibition) at 1uM” value is -4.71%.
With `O=C(CN(C1CCCCC1)S(=O)(=O)c1ccccc1)NCc1ccco1` the figure was 5.45%; with `CCn1c(=O)c(C(=O)CN2CCN(S(=O)(=O)c3ccccc3)CC2)c(N)n(Cc2ccccc2)c1=O`, 12%; with `N#Cc1ccc(CN2CCN(CC(=O)Nc3ccccc3C(=O)NC3CC3)CC2)cc1`, -87.4%.
With `O=C(CCCN1C(=O)c2ccccc2C1=O)OC1CSCC1NC(=O)c1ccccc1` (stereo not shown), the “hERG current change (%, negative = inhibition) at 1uM” value is reported as -1.58%.
In the case of `COc1cccc(/C=N/NC(=O)CNC(=O)COc2cccc(C)c2)c1O`, the “hERG current change (%, negative = inhibition) at 1uM” value is given as 7.09%.
As to `Cc1ccsc1/C=N/NC(=O)Cc1cccn1C`, the “hERG current change (%, negative = inhibition) at 1uM” value came to 2.33%.
For `COc1ccccc1-c1nc2c3ccccc3nc(=S)n2[nH]1` the value was 32.3%.
For `CCNc1nc(ON=C(C)C)nc(N(C)C)n1` the value was 3.92%; for `Cc1onc(-c2c(Cl)cccc2Cl)c1NC(=O)NNc1ccccc1`, 0.77%; for `CCCc1cc(=O)[nH]c(SCC(=O)NCc2ccc3c(c2)OCO3)n1`, -6.32%.
With `Cc1cc(C)c2c(c1)/C(=N/NC(=S)Nc1ccc(F)cc1)CCC2` the figure was 9.47%; with `CCOC(=O)C1=C(COC(=O)/C=C/c2ccc([N+](=O)[O-])cc2)NC(=O)NC1C` (stereo not shown), -23.8%.
For `C/C(=N\NC(=O)Cn1nc(C)c([N+](=O)[O-])c1C)c1ccco1`, the “hERG current change (%, negative = inhibition) at 1uM” value was 21.4%.
For `COc1ccc(OC)c(S(=O)(=O)N2CCC(C(=O)NC3CCCCCC3)CC2)c1` the value was 9.77%; for `NC(=O)C1CC(=O)N(c2ccc(OCC(=O)Nc3ccc(F)cc3)cc2)C1` (stereo not shown), 6.18%.
For `CC1CN(CC(=O)c2c(N)n(Cc3ccccc3)c(=O)n(C)c2=O)CC(C)O1` (stereo not shown) the value was 4.3%.
As to `CC(=O)Oc1ccc(-c2cccc(C(=O)NCCCO)c2)cc1`, the “hERG current change (%, negative = inhibition) at 1uM” value stood at 8.54%.
On to `Cc1ccc(S(=O)(=O)/N=C(/c2ccc(F)cc2)N2CCCCC2)cc1`, for which the “hERG current change (%, negative = inhibition) at 1uM” value is 1.25%.
